Data: ChEMBL document CHEMBL2007661, “Compounds: GSK PKIS; Assays: UNC Frye lab” (2012)
Where “and” joins values, the source holds several entries; their conditions need not be identical. Equal entries are not always repeated.

Experiments:
[1] = target: T1, Tyrosine-protein kinase Mer (Homo sapiens) (UniProt Q12866); details: at 10 µM
T1 sequence (whole entry): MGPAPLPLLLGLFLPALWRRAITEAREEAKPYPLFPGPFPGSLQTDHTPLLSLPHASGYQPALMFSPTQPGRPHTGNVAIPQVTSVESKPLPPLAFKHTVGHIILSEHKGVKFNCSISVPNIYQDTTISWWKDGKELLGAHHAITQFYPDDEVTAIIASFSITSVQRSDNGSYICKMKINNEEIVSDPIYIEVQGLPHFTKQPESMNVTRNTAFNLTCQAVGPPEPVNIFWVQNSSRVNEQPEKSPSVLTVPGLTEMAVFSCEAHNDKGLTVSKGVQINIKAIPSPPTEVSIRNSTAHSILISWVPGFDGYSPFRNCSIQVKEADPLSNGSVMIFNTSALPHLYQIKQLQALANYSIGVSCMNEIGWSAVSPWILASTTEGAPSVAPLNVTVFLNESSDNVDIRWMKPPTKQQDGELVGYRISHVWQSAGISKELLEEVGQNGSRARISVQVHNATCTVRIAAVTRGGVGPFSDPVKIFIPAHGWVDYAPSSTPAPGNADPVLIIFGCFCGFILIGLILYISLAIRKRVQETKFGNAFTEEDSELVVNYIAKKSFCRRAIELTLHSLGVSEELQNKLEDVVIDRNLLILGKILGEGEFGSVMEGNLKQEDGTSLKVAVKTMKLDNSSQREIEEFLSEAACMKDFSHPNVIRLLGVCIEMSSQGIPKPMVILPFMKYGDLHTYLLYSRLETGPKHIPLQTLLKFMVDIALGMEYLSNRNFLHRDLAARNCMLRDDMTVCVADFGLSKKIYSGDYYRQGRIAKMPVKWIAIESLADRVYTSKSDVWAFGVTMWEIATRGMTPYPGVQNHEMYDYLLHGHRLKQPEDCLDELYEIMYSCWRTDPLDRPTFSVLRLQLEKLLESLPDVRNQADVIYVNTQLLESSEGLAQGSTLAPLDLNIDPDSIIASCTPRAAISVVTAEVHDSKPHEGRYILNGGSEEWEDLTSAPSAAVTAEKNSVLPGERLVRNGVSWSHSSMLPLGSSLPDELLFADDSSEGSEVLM

[2] = target: T2, Inhibitor of nuclear factor kappa-B kinase subunit alpha (Homo sapiens) (UniProt O15111); details: at 1 µM
T2 sequence (whole entry): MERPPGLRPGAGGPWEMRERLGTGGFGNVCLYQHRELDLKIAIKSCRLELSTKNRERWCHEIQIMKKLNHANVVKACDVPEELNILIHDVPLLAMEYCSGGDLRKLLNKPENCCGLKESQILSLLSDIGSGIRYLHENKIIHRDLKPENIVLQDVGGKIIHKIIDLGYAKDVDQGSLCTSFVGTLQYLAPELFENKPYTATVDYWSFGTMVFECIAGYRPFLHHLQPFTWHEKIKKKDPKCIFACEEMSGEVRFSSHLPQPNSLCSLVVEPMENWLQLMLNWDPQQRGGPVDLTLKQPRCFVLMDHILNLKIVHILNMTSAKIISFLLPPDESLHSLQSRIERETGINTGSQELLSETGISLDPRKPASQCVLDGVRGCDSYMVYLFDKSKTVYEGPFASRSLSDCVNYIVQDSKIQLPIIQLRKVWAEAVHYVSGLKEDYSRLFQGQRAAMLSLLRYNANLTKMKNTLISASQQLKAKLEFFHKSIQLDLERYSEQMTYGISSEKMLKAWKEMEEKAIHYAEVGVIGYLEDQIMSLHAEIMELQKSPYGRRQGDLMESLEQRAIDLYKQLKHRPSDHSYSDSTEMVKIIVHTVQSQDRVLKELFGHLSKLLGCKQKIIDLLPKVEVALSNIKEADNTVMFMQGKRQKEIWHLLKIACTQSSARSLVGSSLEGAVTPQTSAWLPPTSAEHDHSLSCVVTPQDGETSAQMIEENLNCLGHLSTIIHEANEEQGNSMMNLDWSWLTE

[3] = target: T3, Inhibitor of nuclear factor kappa-B kinase subunit beta (Homo sapiens) (UniProt O14920); details: at 1 µM
T3 sequence (whole entry): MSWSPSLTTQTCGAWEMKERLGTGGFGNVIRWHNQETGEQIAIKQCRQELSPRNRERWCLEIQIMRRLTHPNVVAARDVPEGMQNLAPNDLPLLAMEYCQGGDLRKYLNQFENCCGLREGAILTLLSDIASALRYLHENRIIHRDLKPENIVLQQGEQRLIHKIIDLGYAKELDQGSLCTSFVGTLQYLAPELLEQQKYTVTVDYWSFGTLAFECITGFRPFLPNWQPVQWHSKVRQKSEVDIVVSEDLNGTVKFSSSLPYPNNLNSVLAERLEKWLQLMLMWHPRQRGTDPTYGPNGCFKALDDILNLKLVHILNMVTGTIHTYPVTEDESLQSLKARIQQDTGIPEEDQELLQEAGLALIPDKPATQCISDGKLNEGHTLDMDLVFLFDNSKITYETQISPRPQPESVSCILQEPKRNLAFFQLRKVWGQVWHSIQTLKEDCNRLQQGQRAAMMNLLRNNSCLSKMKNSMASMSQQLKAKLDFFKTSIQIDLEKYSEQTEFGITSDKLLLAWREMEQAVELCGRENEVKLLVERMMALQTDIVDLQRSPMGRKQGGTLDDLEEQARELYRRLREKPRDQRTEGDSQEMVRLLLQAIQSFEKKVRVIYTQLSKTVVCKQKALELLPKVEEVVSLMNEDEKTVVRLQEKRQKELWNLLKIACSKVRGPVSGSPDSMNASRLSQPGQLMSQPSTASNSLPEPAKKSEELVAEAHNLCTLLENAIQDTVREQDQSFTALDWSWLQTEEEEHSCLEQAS

[4] = target: T4, Inhibitor of nuclear factor kappa-B kinase subunit epsilon (Homo sapiens) (UniProt Q14164); details: at 1 µM
T4 sequence (whole entry): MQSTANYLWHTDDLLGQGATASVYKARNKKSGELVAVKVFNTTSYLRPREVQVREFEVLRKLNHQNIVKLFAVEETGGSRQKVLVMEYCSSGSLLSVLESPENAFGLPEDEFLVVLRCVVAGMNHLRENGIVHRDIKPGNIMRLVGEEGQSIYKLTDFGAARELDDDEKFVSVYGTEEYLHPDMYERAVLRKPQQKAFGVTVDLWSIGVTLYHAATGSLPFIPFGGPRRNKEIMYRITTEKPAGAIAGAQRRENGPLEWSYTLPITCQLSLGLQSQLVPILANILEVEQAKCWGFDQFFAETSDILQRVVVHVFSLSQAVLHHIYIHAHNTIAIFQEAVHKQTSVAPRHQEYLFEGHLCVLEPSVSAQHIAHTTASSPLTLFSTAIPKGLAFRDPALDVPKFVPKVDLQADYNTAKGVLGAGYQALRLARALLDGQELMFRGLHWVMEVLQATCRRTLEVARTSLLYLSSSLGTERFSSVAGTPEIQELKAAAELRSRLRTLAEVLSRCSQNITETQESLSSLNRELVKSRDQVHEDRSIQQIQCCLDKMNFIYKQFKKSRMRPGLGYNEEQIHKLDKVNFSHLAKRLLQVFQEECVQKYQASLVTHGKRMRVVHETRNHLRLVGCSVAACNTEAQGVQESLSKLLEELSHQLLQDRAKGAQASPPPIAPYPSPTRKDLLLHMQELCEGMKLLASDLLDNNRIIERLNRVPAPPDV

[5] = target: T5, Serine/threonine-protein kinase TBK1 (Homo sapiens) (UniProt Q9UHD2); details: at 1 µM
T5 sequence (whole entry): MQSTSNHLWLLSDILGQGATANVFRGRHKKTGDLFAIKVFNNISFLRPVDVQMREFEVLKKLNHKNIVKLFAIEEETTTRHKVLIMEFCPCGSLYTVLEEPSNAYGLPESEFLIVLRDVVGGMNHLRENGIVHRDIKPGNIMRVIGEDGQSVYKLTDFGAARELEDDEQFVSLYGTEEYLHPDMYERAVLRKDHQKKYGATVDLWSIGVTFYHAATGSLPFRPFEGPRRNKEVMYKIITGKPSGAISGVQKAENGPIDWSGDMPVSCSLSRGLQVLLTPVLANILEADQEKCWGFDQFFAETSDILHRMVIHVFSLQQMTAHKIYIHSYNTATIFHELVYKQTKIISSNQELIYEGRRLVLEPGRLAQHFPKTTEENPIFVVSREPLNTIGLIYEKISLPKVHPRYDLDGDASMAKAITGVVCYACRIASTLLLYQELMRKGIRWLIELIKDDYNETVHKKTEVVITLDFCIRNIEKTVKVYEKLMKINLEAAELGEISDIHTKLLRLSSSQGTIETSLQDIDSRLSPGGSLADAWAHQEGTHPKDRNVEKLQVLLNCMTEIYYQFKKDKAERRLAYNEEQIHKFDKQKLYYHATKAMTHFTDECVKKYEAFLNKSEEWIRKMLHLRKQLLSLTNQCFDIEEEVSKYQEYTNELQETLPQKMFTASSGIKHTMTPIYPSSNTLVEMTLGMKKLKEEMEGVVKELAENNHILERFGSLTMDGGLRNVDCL

| inhibition [1] | inhibition [2] | inhibition [3] | inhibition [4] | inhibition [5] | Compound |
| --- | --- | --- | --- | --- | --- |
| -7% | -5% and -6% | 1% | 2% and 1% | 2% and 4% | Cc1cccc(Oc2nccc(-c3c(-c4ccc(F)cc4)ncn3C3CCNCC3)n2)c1C |
| 26% | 1% | -3% and -5% | 2% and -1% | 3% | O=C1NC(=O)C(c2ccccc2)=C1Nc1ccccc1 |
| 2% | -1% | -3% and -2% | -3% | -5% and -6% | O=C(O)c1ccc(Oc2nccc(-c3c(-c4ccc(F)cc4)ncn3C3CCNCC3)n2)cc1 |
| 79% | 9% and 1% | 0% and 1% | 13% and 0% | 2% and 4% | Fc1ccc(Oc2nccc(-c3c(-c4ccc(F)cc4)ncn3C3CCNCC3)n2)cc1 |
| 13% | 2% and 3% | -7% and -1% | 17% and 15% | 21% and 19% | O=C1NC(=O)C(c2ccccc2Cl)=C1Nc1cc(Cl)c(O)c(Cl)c1 |
| -8% | -3% and -4% | 0% and 5% | 1% and 3% | 3% and 4% | Fc1ccc(-c2ncn(C3CCNCC3)c2-c2ccnc(Oc3ccc(Cl)cc3)n2)cc1 |
| 86% | 4% and 3% | -1% | 0% | 2% and 0% | Fc1ccc(-c2ncn(C3CCNCC3)c2-c2ccnc(Oc3cccc(C(F)(F)F)c3)n2)cc1 |
| -2% | 0% | -3% and -1% | -1% | -2% | Fc1ccc(-c2ncn(C3CCNCC3)c2-c2ccnc(Oc3cccc(F)c3)n2)cc1 |
| 95% | 1% | 0% and 1% | 3% and 4% | 4% | NC(=O)CCc1ccccc1Oc1nccc(-c2c(-c3ccc(F)cc3)ncn2C2CCNCC2)n1 |
| -3% | -2% and -1% | -1% and 0% | 1% | 3% and 5% | CS(=O)(=O)c1ccc(Oc2nccc(-c3c(-c4ccc(F)cc4)ncn3C3CCNCC3)n2)cc1 |
| 17% | 3% and 4% | -2% | 8% and 6% | 5% | COc1ccccc1C1=C(Nc2ccccc2)C(=O)NC1=O |
| -7% | 0% and -3% | -2% and 3% | 1% | 1% and 0% | CC(C)(C)c1ccc(Oc2nccc(-c3c(-c4ccc(F)cc4)ncn3C3CCNCC3)n2)cc1 |
| 4% | -2% | 1% and -1% | 3% | 3% and 5% | COc1ccccc1Oc1nccc(-c2c(-c3ccc(F)cc3)ncn2C2CCNCC2)n1 |
| -7% | -10% and 5% | -4% and -3% | 54% and 53% | 91% and 90% | O=C1NC(=O)C(c2cccc([N+](=O)[O-])c2)=C1Nc1cc(Cl)c(O)c(Cl)c1 |
